The other results are listed elsewhere or left out.

In one experiment the test system is HSkMC. The experiment is described as follows: cytotoxicity call (relative viability < 0.9). To be noted: 10 µM.
For another experiment, the system named is HepG2. The experiment is described as follows: cytotoxicity call (relative viability < 0.9). The note with it: 10 µM.
The next experiment relates to S. aureus RN4220. Description: growth inhibition call (relative growth <= 0.2). The note with it: 50 µM.

For the molecule `COc1ccc(NC(=O)Nc2ccc3c(c2)C(=O)N([C@H](C)CO)C[C@H](C)[C@@H](CN(C)S(=O)(=O)c2ccc(Cl)cc2)OCCCC[C@H](C)O3)cc1`, the cytotoxicity call in the experiment on HSkMC and in the experiment with HepG2 was “inactive” throughout. For the same molecule, the growth inhibition call in the experiment on S. aureus RN4220 was “inactive”.

With `COc1ccc2c(=O)ccoc2c1`, the cytotoxicity call in the experiment with HSkMC and in the experiment with HepG2 was “inactive” each time. The growth inhibition call in the experiment with S. aureus RN4220 was “inactive”.

`Cc1noc(C)c1S(=O)(=O)Nc1cccc2c1O[C@@H](CN(C)S(=O)(=O)c1ccccc1)[C@@H](C)CN([C@H](C)CO)C2=O`: the cytotoxicity call with HSkMC and in the experiment with HepG2 was “inactive” throughout. In the experiment with S. aureus RN4220, the growth inhibition call was “inactive”.

Take `C[C@H](CO)N1C[C@H](C)[C@@H](CN(C)S(=O)(=O)c2cn(C)cn2)Oc2ncc(Br)cc2C1=O`: the cytotoxicity call in the experiment with HSkMC and with HepG2 was “inactive” throughout. In addition, in the experiment with S. aureus RN4220, the growth inhibition call is “inactive”.

In the case of `COC(=O)C[C@@H]1CC[C@H]2[C@@H](COC[C@@H](O)CN2S(=O)(=O)c2ccc(F)cc2)O1`, the cytotoxicity call in the experiment with HSkMC and in the experiment on HepG2 was “inactive” in each case. Moreover, the growth inhibition call in the experiment on S. aureus RN4220 is “inactive”.

On to `CO[C@H](CCO)[C@H](O)c1ccc(O)c(F)c1`, for which the cytotoxicity call in the experiment on HSkMC and with HepG2 was “inactive” throughout. Moreover, the growth inhibition call with S. aureus RN4220 is “inactive”.

For the molecule `C[C@@H]1CCCCO[C@@H](CN(C)C(=O)Nc2ccc3c(c2)OCO3)[C@@H](C)CN([C@H](C)CO)C(=O)c2cc(NS(=O)(=O)c3ccc(Cl)cc3)ccc2O1`, the cytotoxicity call in the experiment on HSkMC and in the experiment with HepG2 was “inactive” throughout. In the experiment on S. aureus RN4220, the growth inhibition call was “inactive”.

Turning to `CC(C)NC(=O)N(C)C[C@@H]1Oc2c(NC(=O)NC3CCCCC3)cccc2C(=O)N([C@H](C)CO)C[C@H]1C`, the cytotoxicity call in the experiment on HSkMC and in the experiment on HepG2 was “inactive” in each case. In addition, the growth inhibition call in the experiment with S. aureus RN4220 is “inactive”.

As to `COc1ccc(NC(=O)N(C)C[C@@H]2Oc3ccc(NC(=O)CCCCCC(=O)Nc4ccccc4N)cc3CC(=O)N([C@H](C)CO)C[C@H]2C)cc1`, the cytotoxicity call in the experiment on HSkMC and in the experiment on HepG2 was “inactive” each time. Further, the growth inhibition call with S. aureus RN4220 was “inactive”.

Regarding `C[C@H](CO)N1C[C@H](C)[C@H](CN(C)Cc2ccc(-c3ccccc3)cc2)Oc2ccc(NS(=O)(=O)c3cccs3)cc2C1=O`, the cytotoxicity call in the experiment with HSkMC and in the experiment with HepG2 was “inactive” in each case. Besides, the growth inhibition call with S. aureus RN4220 was “inactive”.

Consider `COc1ccc(S(=O)(=O)N(C)C[C@H]2OCCCC[C@H](C)Oc3ccc(NS(C)(=O)=O)cc3C(=O)N([C@@H](C)CO)C[C@@H]2C)cc1`, for which the cytotoxicity call in the experiment with HSkMC and in the experiment with HepG2 was “inactive” in each case. In addition, the growth inhibition call with S. aureus RN4220 was “inactive”.

On to `O=C(C[C@@H]1CC[C@H]2[C@@H](COC[C@H](O)CN2C(=O)Nc2ccc(Cl)cc2)O1)NCCc1ccncc1`, for which the cytotoxicity call in the experiment on HSkMC and in the experiment with HepG2 was “inactive” in each case. In the experiment with S. aureus RN4220, the growth inhibition call was “inactive”.

Take `CC(C)NC(=O)Nc1cccc2c1O[C@@H](CN(C)Cc1ccc(C(=O)O)cc1)[C@H](C)CN([C@H](C)CO)C2=O`: the cytotoxicity call in the experiment on HSkMC and in the experiment on HepG2 was “inactive” each time. The growth inhibition call in the experiment on S. aureus RN4220 is “inactive”.

As to `Cc1ccc(S(=O)(=O)N(C)C[C@@H]2Oc3ccc(NC(=O)CCN4CCOCC4)cc3C(=O)N([C@@H](C)CO)C[C@@H]2C)cc1`, the cytotoxicity call in the experiment on HSkMC and in the experiment with HepG2 was “inactive” throughout. The growth inhibition call with S. aureus RN4220 is “inactive”.

Turning to `Cc1noc(C)c1NC(=O)Nc1cccc2c1O[C@@H](CN(C)S(=O)(=O)c1ccccc1)[C@H](C)CN([C@@H](C)CO)C2=O`, the cytotoxicity call with HSkMC and with HepG2 was “inactive” each time. For the same molecule, the growth inhibition call in the experiment on S. aureus RN4220 was “inactive”.

As to `C[C@@H]1CN([C@H](C)CO)C(=O)CCCn2cc(nn2)CO[C@@H]1CN(C)S(C)(=O)=O`, the cytotoxicity call with HSkMC and with HepG2 was “inactive” in each case. Besides, the growth inhibition call with S. aureus RN4220 was “inactive”.

As to `COc1ccc(CN(C)C[C@@H]2OCCCC[C@H](C)Oc3ccc(NS(=O)(=O)c4c(C)noc4C)cc3C(=O)N([C@H](C)CO)C[C@H]2C)cc1`, the cytotoxicity call with HSkMC and in the experiment on HepG2 was “inactive” in each case. Moreover, in the experiment on S. aureus RN4220, the growth inhibition call is “inactive”.

As for `O=C(O)Cc1ccc(-c2ccccc2)cc1`, the cytotoxicity call in the experiment with HSkMC and in the experiment on HepG2 was “inactive” each time. In addition, in the experiment with S. aureus RN4220, the growth inhibition call was “inactive”.

For the molecule `Brc1ccc(-c2ccc(Br)s2)s1`, the cytotoxicity call in the experiment with HSkMC and with HepG2 was “inactive” throughout. The growth inhibition call in the experiment with S. aureus RN4220 was “inactive”.

In the case of `COc1ccc(-c2cnc3c(c2)C(=O)N([C@H](C)CO)C[C@H](C)[C@H](CN(C)C(=O)Cc2ccncc2)O3)cc1`, the cytotoxicity call in the experiment with HSkMC and in the experiment with HepG2 was “inactive” throughout. Further, the growth inhibition call in the experiment with S. aureus RN4220 is “inactive”.

Regarding `COc1cccc(C#Cc2ccc3c(c2)O[C@@H](CN(C)C(=O)c2ccccn2)[C@@H](C)CN([C@@H](C)CO)S3(=O)=O)c1`, the cytotoxicity call in the experiment on HSkMC and in the experiment on HepG2 was “inactive” in each case. For the same molecule, the growth inhibition call in the experiment with S. aureus RN4220 is “inactive”.

In the case of `Nc1ncnc2c1ncn2[C@H]1CC[C@@H](CO)O1`, the cytotoxicity call in the experiment on HSkMC and in the experiment on HepG2 was “inactive” each time. Besides, in the experiment on S. aureus RN4220, the growth inhibition call was “inactive”.

With `O=C1NCCN1c1cccnc1`, the cytotoxicity call in the experiment on HSkMC and in the experiment on HepG2 was “inactive” each time. The growth inhibition call in the experiment with S. aureus RN4220 was “inactive”.

In the case of `CCNC(=O)C[C@H]1CC[C@@H]2[C@H](COC[C@H](O)CN2C(=O)Nc2c(C)noc2C)O1`, the cytotoxicity call with HSkMC and in the experiment with HepG2 was “inactive” throughout. Also, the growth inhibition call in the experiment on S. aureus RN4220 was “inactive”.

Turning to `Cc1ccc(S(=O)(=O)Nc2ccc3c(c2)C(=O)N([C@H](C)CO)C[C@@H](C)[C@@H](CN(C)CC2CCCCC2)OCCCC[C@H](C)O3)cc1`, in the experiment on HSkMC, the cytotoxicity call is “inactive”. Moreover, in the experiment on HepG2, the cytotoxicity call is “active”. In the experiment on S. aureus RN4220, the growth inhibition call is “inactive”.

Take `OCC(O)C(O)CO` (configuration not stated): the cytotoxicity call in the experiment on HSkMC and in the experiment with HepG2 was “inactive” in each case. The growth inhibition call with S. aureus RN4220 was “inactive”.

`CCCCCCCCCCCCCCCC(=O)NCCO`: the cytotoxicity call in the experiment on HSkMC (human skeletal muscle cells) and in the experiment on HepG2 was “inactive” throughout. The growth inhibition call in the experiment with S. aureus RN4220 was “inactive”.

With `C[C@H](CO)N1C[C@H](C)[C@@H](CN(C)S(=O)(=O)c2ccc(Cl)cc2)Oc2ccc(N(C)C)cc2CC1=O`, the cytotoxicity call in the experiment with HSkMC and with HepG2 was “inactive” in each case. Also, in the experiment with S. aureus RN4220, the growth inhibition call is “inactive”.

In the case of `CC(C)(CO)C(O)C(=O)NCCC(=O)NCCSSCCNC(=O)CCNC(=O)C(O)C(C)(C)CO` (configuration not stated), the cytotoxicity call with HSkMC and in the experiment with HepG2 was “inactive” each time. Also, in the experiment on S. aureus RN4220, the growth inhibition call is “inactive”.

Values taken from the antibiotic and cytotoxicity screens of Wong et al. (2023).
